The list shows a part of the results.
Tests used:
Assay in all cases: glycan array binding signal (z-score within array); higher = stronger binding
Details in all cases: glycan notation: IUPAC condensed, linker removed
Glc(a1-2)Glc = molecular target: Glc(a1-2)Glc
Method in brief: (§1)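 The Consortium for Functional Glycomics database supplied 3228 glycan arrays, of which those lacking an available protein sequence were dropped. The binding signal, a within-array Z-score, was averaged across arrays of the same protein sequence and across linkers. Negative scores can be read as non-binding.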

Glc(a1-2)Glc(a1-2)Glc = molecular target: Glc(a1-2)Glc(a1-2)Glc
Method in brief: as §1

[1] = molecular target: Glc(a1-2)Glc(a1-2)Glc(a1-2)Glc
Method in brief: as §1

[2] = molecular target: Glc(a1-2)Glc(a1-2)Glc(a1-2)Glc(a1-2)Glc
Method in brief: as §1

[3] = molecular target: Glc(a1-2)Glc(a1-2)Glc(a1-2)Glc(a1-2)Glc(a1-2)Glc
Method in brief: as §1

[4] = molecular target: Glc(a1-2)Glc(a1-2)Glc(a1-2)Glc(a1-2)Glc(a1-2)Glc(a1-2)Glc
Method in brief: as §1

[5] = molecular target: Glc(a1-2)Glc(a1-2)Glc(a1-2)Glc(a1-2)Glc(a1-2)Glc(a1-2)Glc(a1-2)Glc
Method in brief: as §1

[6] = molecular target: Glc(a1-2)Glc(a1-2)Glc(a1-2)Glc(a1-2)Glc(a1-2)Glc(a1-2)Glc(a1-2)Glc(a1-2)Glc
Method in brief: as §1

Glc(a1-3)Glc = molecular target: Glc(a1-3)Glc
Method in brief: as §1

Glc(a1-3)Glc(a1-3)Glc = molecular target: Glc(a1-3)Glc(a1-3)Glc
Method in brief: as §1

[7] = molecular target: Glc(a1-3)Glc(a1-3)Glc(a1-3)Glc
Method in brief: as §1

[8] = molecular target: Glc(a1-3)Glc(a1-3)Glc(a1-3)Glc(a1-3)Glc
Method in brief: as §1

[9] = molecular target: Glc(a1-3)Glc(a1-3)Glc(a1-3)Glc(a1-3)Glc(a1-3)Glc
Method in brief: as §1

[10] = molecular target: Glc(a1-3)Glc(a1-3)Glc(a1-3)Glc(a1-3)Glc(a1-3)Glc(a1-3)Glc
Method in brief: as §1

[11] = molecular target: Glc(a1-3)Glc(a1-3)Glc(a1-3)Glc(a1-3)Glc(a1-3)Glc(a1-3)Glc(a1-3)Glc
Method in brief: as §1

[12] = molecular target: Glc(a1-3)Glc(a1-3)Glc(a1-3)Glc(a1-3)Glc(a1-3)Glc(a1-3)Glc(a1-3)Glc(a1-3)Glc
Method in brief: as §1

[13] = molecular target: Glc(a1-3)Glc(a1-3)Glc(a1-3)Glc(a1-3)Glc(a1-3)Glc(a1-3)Glc(a1-3)Glc(a1-3)Glc(a1-3)Glc
Method in brief: as §1

[14] = molecular target: Glc(a1-3)Glc(a1-3)Glc(a1-3)Glc(a1-3)Glc(a1-3)Glc(a1-3)Glc(a1-3)Glc(a1-3)Glc(a1-3)Glc(a1-3)Glc
Method in brief: as §1

[15] = molecular target: Glc(a1-3)Glc(a1-3)Glc(a1-3)Glc(a1-3)Glc(a1-3)Glc(a1-3)Glc(a1-3)Glc(a1-3)Glc(a1-3)Glc(a1-3)Glc(a1-3)Glc
Method in brief: as §1

[16] = molecular target: Glc(a1-3)Glc(a1-3)Glc(a1-3)Glc(a1-3)Glc(a1-3)Glc(a1-3)Glc(a1-3)Glc(a1-3)Glc(a1-3)Glc(a1-3)Glc(a1-3)Glc(a1-3)Glc
Method in brief: as §1

Glc(a1-4)Glc = molecular target: Glc(a1-4)Glc
Method in brief: as §1

Glc(a1-4)Glc(a1-4)Glc = molecular target: Glc(a1-4)Glc(a1-4)Glc
Method in brief: as §1

[17] = molecular target: Glc(a1-4)Glc(a1-4)Glc(a1-4)Glc
Method in brief: as §1

[18] = molecular target: Glc(a1-4)Glc(a1-4)Glc(a1-4)Glc(a1-4)Glc
Method in brief: as §1

[19] = molecular target: Glc(a1-4)Glc(a1-4)Glc(a1-4)Glc(a1-4)Glc(a1-4)Glc
Method in brief: as §1

[20] = molecular target: Glc(a1-4)Glc(a1-4)Glc(a1-4)Glc(a1-4)Glc(a1-4)Glc(a1-4)Glc
Method in brief: as §1

[21] = molecular target: Glc(a1-4)Glc(a1-4)Glc(a1-4)Glc(a1-4)Glc(a1-4)Glc(a1-4)Glc(a1-4)Glc
Method in brief: as §1

[22] = molecular target: Glc(a1-4)Glc(a1-4)Glc(a1-4)Glc(a1-4)Glc(a1-4)Glc(a1-4)Glc(a1-4)Glc(a1-4)Glc
Method in brief: as §1

[23] = molecular target: Glc(a1-4)Glc(a1-4)Glc(a1-4)Glc(a1-4)Glc(a1-4)Glc(a1-4)Glc(a1-4)Glc(a1-4)Glc(a1-4)Glc
Method in brief: as §1

[24] = molecular target: Glc(a1-4)Glc(a1-4)Glc(a1-4)Glc(a1-4)Glc(a1-4)Glc(a1-4)Glc(a1-4)Glc(a1-4)Glc(a1-4)Glc(a1-4)Glc
Method in brief: as §1

[25] = molecular target: Glc(a1-4)Glc(a1-4)Glc(a1-4)Glc(a1-4)Glc(a1-4)Glc(a1-4)Glc(a1-4)Glc(a1-4)Glc(a1-4)Glc(a1-4)Glc(a1-4)Glc
Method in brief: as §1

[26] = molecular target: Glc(a1-4)Glc(a1-4)Glc(a1-4)Glc(a1-4)Glc(a1-4)Glc(a1-4)Glc(a1-4)Glc(a1-4)Glc(a1-4)Glc(a1-4)Glc(a1-4)Glc(a1-4)Glc
Method in brief: as §1

Glc(a1-4)Glc(a1-6)Glc = molecular target: Glc(a1-4)Glc(a1-6)Glc
Method in brief: as §1

Glc(a1-6)Glc = molecular target: Glc(a1-6)Glc
Method in brief: as §1

Glc(a1-6)Glc(a1-4)Glc = molecular target: Glc(a1-6)Glc(a1-4)Glc
Method in brief: as §1

[27] = molecular target: Glc(a1-6)Glc(a1-4)Glc(a1-4)Glc
Method in brief: as §1

[28] = molecular target: Glc(a1-6)Glc(a1-4)Glc(a1-4)Glc(a1-6)Glc(a1-4)Glc(a1-4)Glc
Method in brief: as §1

Glc(a1-6)Glc(a1-6)Glc = molecular target: Glc(a1-6)Glc(a1-6)Glc
Method in brief: as §1

[29] = molecular target: Glc(a1-6)Glc(a1-6)Glc(a1-6)Glc
Method in brief: as §1

[30] = molecular target: Glc(a1-6)Glc(a1-6)Glc(a1-6)Glc(a1-6)Glc
Method in brief: as §1

[31] = molecular target: Glc(a1-6)Glc(a1-6)Glc(a1-6)Glc(a1-6)Glc(a1-6)Glc
Method in brief: as §1

[32] = molecular target: Glc(a1-6)Glc(a1-6)Glc(a1-6)Glc(a1-6)Glc(a1-6)Glc(a1-6)Glc
Method in brief: as §1

[33] = molecular target: Glc(a1-6)Glc(a1-6)Glc(a1-6)Glc(a1-6)Glc(a1-6)Glc(a1-6)Glc(a1-6)Glc
Method in brief: as §1

[34] = molecular target: Glc(a1-6)Glc(a1-6)Glc(a1-6)Glc(a1-6)Glc(a1-6)Glc(a1-6)Glc(a1-6)Glc(a1-6)Glc
Method in brief: as §1

[35] = molecular target: Glc(a1-6)Glc(a1-6)Glc(a1-6)Glc(a1-6)Glc(a1-6)Glc(a1-6)Glc(a1-6)Glc(a1-6)Glc(a1-6)Glc
Method in brief: as §1

B1: Dectin-1 (Homo sapiens), Q9BXN2 (protein)
chain: TMAIWRSNSGSNTLENGYFLSRNKENHSQPTQSSLEDSVTPTKAVKTTGVLSSPCPPNWIIYEKSCYLFSMSLNSWDGSKRQCWQLGSNLLKIDSSNELGFIVKQVSSQPDNSFWIGLSRPQTEVPWLWEDGSTFSSNLFQIRTTATQENPSPNCVWIHVSVIYDQLCSVPSYSICEKKFSM
Glc(a1-2)Glc
  glycan array binding signal (z-score): -0.145
Glc(a1-2)Glc(a1-2)Glc
  glycan array binding signal (z-score): -0.145
[1]
  glycan array binding signal (z-score): -0.145
[2]
  glycan array binding signal (z-score): -0.145
[3]
  glycan array binding signal (z-score): -0.145
[4]
  glycan array binding signal (z-score): -0.145
[5]
  glycan array binding signal (z-score): -0.145
[6]
  glycan array binding signal (z-score): -0.145
Glc(a1-3)Glc
  glycan array binding signal (z-score): -0.145
Glc(a1-3)Glc(a1-3)Glc
  glycan array binding signal (z-score): -0.145
[7]
  glycan array binding signal (z-score): -0.145
[8]
  glycan array binding signal (z-score): -0.145
[9]
  glycan array binding signal (z-score): -0.145
[10]
  glycan array binding signal (z-score): -0.145
[11]
  glycan array binding signal (z-score): -0.145
[12]
  glycan array binding signal (z-score): -0.145
[13]
  glycan array binding signal (z-score): -0.04
[14]
  glycan array binding signal (z-score): -0.118
[15]
  glycan array binding signal (z-score): -0.046
[16]
  glycan array binding signal (z-score): -0.042
Glc(a1-4)Glc
  glycan array binding signal (z-score): -0.145
Glc(a1-4)Glc(a1-4)Glc
  glycan array binding signal (z-score): 0.029
[17]
  glycan array binding signal (z-score): -0.145
[18]
  glycan array binding signal (z-score): -0.145
[19]
  glycan array binding signal (z-score): -0.145
[20]
  glycan array binding signal (z-score): -0.145
[21]
  glycan array binding signal (z-score): -0.042
[22]
  glycan array binding signal (z-score): -0.044
[23]
  glycan array binding signal (z-score): -0.145
[24]
  glycan array binding signal (z-score): -0.122
[25]
  glycan array binding signal (z-score): 0.026
[26]
  glycan array binding signal (z-score): -0.145
Glc(a1-4)Glc(a1-6)Glc
  glycan array binding signal (z-score): -0.145
Glc(a1-6)Glc
  glycan array binding signal (z-score): -0.145
Glc(a1-6)Glc(a1-4)Glc
  glycan array binding signal (z-score): -0.145
[27]
  glycan array binding signal (z-score): -0.145
[28]
  glycan array binding signal (z-score): -0.145
Glc(a1-6)Glc(a1-6)Glc
  glycan array binding signal (z-score): -0.145
[29]
  glycan array binding signal (z-score): -0.145
[30]
  glycan array binding signal (z-score): -0.145
[31]
  glycan array binding signal (z-score): -0.145
[32]
  glycan array binding signal (z-score): -0.145
[33]
  glycan array binding signal (z-score): -0.145
[34]
  glycan array binding signal (z-score): -0.145
[35]
  glycan array binding signal (z-score): -0.145

Source: the supplement of paper PMC8728848
